In all, about 33,000 sequences were measured (“E-score (-0.5 to 0.5)”: median about -0.011, highest 2% from about 0.28 on). This is one part of the list.
Biological target: T1, Gcr1 (UniProt P07261)
T1 sequence: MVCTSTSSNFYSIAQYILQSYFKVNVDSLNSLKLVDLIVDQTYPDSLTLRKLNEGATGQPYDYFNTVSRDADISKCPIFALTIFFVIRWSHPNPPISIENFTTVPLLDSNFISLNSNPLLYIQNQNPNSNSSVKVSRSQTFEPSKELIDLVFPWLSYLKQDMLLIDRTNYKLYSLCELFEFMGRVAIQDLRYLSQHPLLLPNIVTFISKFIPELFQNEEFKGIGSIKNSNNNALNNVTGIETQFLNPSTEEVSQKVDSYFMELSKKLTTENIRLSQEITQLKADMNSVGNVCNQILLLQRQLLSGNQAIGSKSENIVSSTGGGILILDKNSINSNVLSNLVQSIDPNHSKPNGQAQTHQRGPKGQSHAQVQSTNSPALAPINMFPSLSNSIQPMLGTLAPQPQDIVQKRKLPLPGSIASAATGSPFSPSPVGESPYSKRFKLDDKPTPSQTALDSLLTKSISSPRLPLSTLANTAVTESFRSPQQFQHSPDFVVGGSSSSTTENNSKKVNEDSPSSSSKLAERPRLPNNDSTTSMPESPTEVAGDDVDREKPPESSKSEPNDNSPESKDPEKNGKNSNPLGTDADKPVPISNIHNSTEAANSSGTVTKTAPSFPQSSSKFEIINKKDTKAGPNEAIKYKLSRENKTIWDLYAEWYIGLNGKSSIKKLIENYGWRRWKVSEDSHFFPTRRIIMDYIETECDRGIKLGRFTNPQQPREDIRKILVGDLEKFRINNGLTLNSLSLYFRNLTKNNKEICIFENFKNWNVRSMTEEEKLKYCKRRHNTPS
Assay: PBM E-score (8-mer binding enrichment) (E-score (-0.5 to 0.5)); higher = stronger / more preferred TF binding; most listed sequences are background and not binding sites
Settings: protein concentration: 100 nM; construct: GST-full length
Summary of the method: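 Full-length yeast transcription factors or their DNA-binding domains, GST-tagged and expressed with PURExpress, were applied at about 100-200 nM to universal all-10-mer Agilent arrays. These arrays had been made double-stranded by primer extension on fresh or once-stripped slides. Detection used fluorescent anti-GST, normalisation used masliner, and E-scores for ungapped eight-base words pooled with reverse complements came from the Universal PBM Analysis Suite.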

Sequence	PBM E-score
ATTGTTAA	0.0512
CGGCCAAA	0.064
GTCGATTA	-0.0178
TCACGTAA	-0.0255
GACGCTGA	0.301
GCCCCCGC	0.0462
ACGGCCAT	-0.246
CGAGCAAC	-0.0436
TCCATGAA	-0.0988
GGTTACCA	0.0502
AGCAAGCA	-0.294
GCTTGACA	0.126
AACTGTGT	-0.0046
ATCACGCA	0.0407
AAAGCGCT	-0.224
TAGAGGAA	0.396
ATTTCCCG	0.0883
ACGCGGAT	0.13
ATTGGCAA	0.0646
CGTCGGGA	0.0889
CTGGTCGC	0.219
GTAGCGGA	0.0281
ATGTACTA	-0.172
ACCTTTAG	-0.0897
CCGTGTTA	-0.213

Sequence	PBM E-score
ACTAAGGC	0.0384
CGTCACTA	0.198
AGCGGCAG	0.00512
CCAATCAG	0.191
AAAGGTCT	-0.0598
AGAGTGTA	-0.0677
ATAGAACA	-0.112
CCTGTTAA	0.228
CCCTCCGC	-0.194
AATACACA	0.0147
GGCATCGA	0.0436
CGGCCCAC	-0.311
AGACGCCG	0.421
GAAGCCGA	0.401
TAGGGATA	-0.157
CAACTGAG	-0.0496
CGGTCAAC	-0.244
GACAACCA	0.111
ACTTCAGA	0.0499
TAGCGCCA	0.181
CCTCTTAG	0.0353
CTGGTTAA	0.00827
GGAATAAC	0.0561
ATGTGGAA	0.16
CACTCGCG	0.0621

Sequence	PBM E-score
TATTCACA	0.174
CGGGAATC	0.216
GCTGGGCC	-0.16
CTCGTACA	-0.0352
TAGTTTGA	0.0745
AACCGGTG	0.0439
ATAACGCC	-0.0772
ACTGTTCG	-0.228
AACTCTTC	-0.28
TAAACGTA	0.0392
ATCGCGTA	-0.0264
ACGTGTGA	-0.274
AGACGAGG	-0.149
CCTCCTTA	-0.153
AGTAATTA	0.0077
GAGAAACC	0.0692
ACCTATGG	-0.077
CTATCCCA	-0.0348
CGTAGTAC	-0.0808
CCTGTGTC	0.129
AGGGGAAG	0.2
AGTCAATG	0.0242
CTAAATAG	0.225
GATCGGGA	-0.142
AACAACGG	0.128

Sequence	PBM E-score
ATATACAC	-0.143
CCTACTTC	0.0726
AAAGGGGT	0.0603
CTGCATCA	0.057
ATCAGCGC	0.0104
GCCTCCGA	0.0691
AGACACTG	-0.232
CCGCTCAA	-0.0654
AGGCTTGA	-0.109
ATCTCAAG	0.13
CGACGTGA	0.0384
AGCTCAAA	0.136
GGAGGAAC	-0.139
CGGTCAAA	-0.0135
ATAAGGCG	0.0319
CGGCACCC	0.381
CCGGTCAA	-0.039
CATCGCGA	0.118
CAAGACTC	0.14
AATCATTA	0.0416
CCTCAGTA	-0.186
GAGGATAC	-0.00197
CCAGTTCA	0.13
TACAGAAA	0.00771
CGTAGTCA	-0.0862

Sequence	PBM E-score
CGACCTCC	-0.0822
ACTTGAAT	0.0713
ACCAGCCG	-0.183
ATAGTTGC	0.232
CAGGTGGC	0.0298
ATGGCGAA	-0.147
ATGCAGAG	-0.0633
CCATGGTC	-0.165
ACCCCCTC	-0.367
GACAACTC	-0.0407
CGTCCTCA	0.0405
AAAAACAA	0.0916
GGCTGAGA	-0.0514
AGCTGGGG	-0.102
CTGGGAGA	0.156
CAGCCCCC	-0.0636
ACCGTACC	-0.105
ACGAATTC	0.204
CGCACCAA	0.0827
GGGATCGA	-0.0159
GTACCGAA	0.111
CACGGCTG	-0.193
GTAAGGCA	-0.101
AGGTCCCG	-0.0288
GTCCATCA	-0.105

Sequence	PBM E-score
GATCCCGA	0.202
ATATGGAG	0.149
CCCCCGGC	-0.0149
AGGTGACT	-0.125
CTTTCCGC	-0.271
TGACCTAA	0.11
CATTAGCA	0.2
AGGGGGCC	-0.0347
CCACATTC	-0.113
GCAGATCC	0.138
GCGTCCGA	0.251
GGTAGGTA	-0.0582
CCCAATAG	0.0922
AGCGTTTC	-0.0245
CTAAGATC	0.123
ATTAGTAC	-0.0685
AAGTATGG	0.0635
ATGGGCGG	0.117
AATAATTA	0.0967
GATAGACA	-0.249
CCAGTCGG	-0.0778
ATCCTGTG	0.206
CGAGCACA	-0.16
GAATGTAA	0.073
CGCGCTAA	0.16

Sequence	PBM E-score
AACGGAAT	0.149
ACAGCCGA	-0.133
AGCCTTTG	-0.178
CGACGACC	-0.197
AAGGTTAA	-0.056
CGCCTTCC	0.193
ACGTAGCA	-0.079
CGTGCGTA	-0.0223
GCCAACCA	-0.165
AGATTAGG	0.0456
AGCCGGAA	0.125
AAACATTC	-0.0188
GGCGGATA	-0.141
GCCCGGCC	-0.144
ATTCCAAC	0.221
GATACTAC	0.209
ATAGCTTC	0.249
CGGTAATA	0.0548
GAATATAA	0.0912
CTCGGGTC	0.135
AGGAGGCC	0.0876
TCACGACA	-0.0725
